Results as given in ChEMBL document CHEMBL1201862, “PubChem BioAssay data set” (2004).
Where “and” joins values, the source holds several entries; their conditions need not be identical. Equal entries are not always repeated.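 Grown in 96-well plates, cells were treated for 48 hours with each compound at five concentrations. Insufficient inhibition: endpoint recorded as highest concentration tested. GI50 = concentration required for 50% inhibition of growth.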 Calls of active or inactive are those of the source. Rule as the data show it: active = GI50 up to about 1.1 µM and inactive = higher.

tested on: NCI-H322M; test: NCI-60 cell line screen, 48 h

| SMILES | GI50 |
| --- | --- |
| O=C(O)c1cccc(SSc2cccc(C(=O)O)c2)c1 | inactive: > 100 µM |
| OC(Cc1ccccc1)(Cc1ccccc1)c1ccccc1 | inactive: 20.9 µM |
| Clc1ccc(-c2noc(CN3CCCCC3)n2)cc1 | inactive: > 100 µM |
| c1ccc2cc(NCNc3ccc4ccccc4c3)ccc2c1 | inactive: 23.2 µM |
| O=C1C=CC(=O)c2c(O)c(N3CCN(c4ccccn4)CC3)cc(O)c21 | inactive: 6.56 µM |
| CN(C)CCNc1ccc2c(=O)n(CCN(C)C)c(=O)n3c4ccc(O)cc4c(=O)c1c23 | active: < 0.0172 µM |
| O=C(/C=C/c1ccccc1O)c1ccc([N+](=O)[O-])cc1 | inactive: 17.2 µM |
| CC[C@]12C=CCN3CCC4(c5cc(/N=N/c6ccc([N+](=O)[O-])cc6)c(OC)cc5N(C)[C@H]4[C@@](O)(C(=O)OC)[C@@H]1OC(C)=O)[C@@H]32 (stereo not given in full) | inactive: 20.7 µM |
| COC(=O)Cc1ccc2c(c1)Sc1ccc(CC(=O)OC)cc1N2C | inactive: 38.5 µM |
| CC(C)C1=C(Cc2ccccc2)C(=O)O/C1=C\c1ccc(O)c(Cl)c1 | inactive: 16.9 µM |
| CCN1CC2=C(OC(N)=C(C#N)C2c2ccc(Cl)cc2)/C(=C/c2ccc(Cl)cc2)C1 (stereo not given) | inactive: 30.7 µM |
| CCOC(=O)/C(C#N)=C(/NS(=O)(=O)c1cc(C)c(Cl)cc1[S-])[n+]1ccc(N(C)C)cc1 | inactive: > 100 µM |
| COC(=O)C1=CN(C2CCCCC2)C2(c3ccccc3)c3ccccc3C(=O)OC(=O)C12 (stereo not given) | inactive: > 100 µM |
| Cc1cccc(C)c1NC(=O)C(=O)C(C(=O)c1ccccc1-c1ccccc1)C1OC(=O)c2ccccc21 (stereo not given) | inactive: 22.4 µM |
| COC(=O)c1c(O)ccc2c1c1c(n2Cc2cc(OC)cc(OC)c2)C(=O)c2ccccc2C1=O | inactive: 17.5 µM |
| COc1cc2c(cc1OC)C1C=NC(C(=O)O)(C2)c2ccccc21 (stereo not given) | inactive: > 100 µM |
| Cc1ccc(S(=O)(=O)NC(=O)NCc2ccc(S(N)(=O)=O)cc2)cc1 | inactive: > 100 µM |
| CSc1c(C)c(C)nn1-c1ccccc1 | inactive: > 100 µM |
| CCOC(=O)CCC1(C(=O)OC)CCCC1=O (stereo not given) | inactive: > 100 µM |
| Cc1ccc(-c2cc(-c3cc(-c4ccc(C)cc4C)[nH]n3)[nH]n2)c(C)c1 | inactive: 18 µM |
| CC1(C)O[C@@H](CC/C=C/CO)[C@H](CC/C=C/CO)O1 | inactive: > 100 µM |
| Cc1ccc(O)c(C(c2cc(C)ccc2O)c2cc([N+](=O)[O-])ccc2O)c1 | inactive: 16.7 µM |
| CC(=O)OCC(=O)O[C@@H]1[C@H]2[C@@H](OC(=O)c3ccccc3)[C@@H](C)C[C@]2(O)[C@H](OC(C)=O)[C@@]2(C)C(OC(C)=O)[C@]1(OC(C)=O)C[C@H]1C(=O)C(C)(C)C[C@@H]12 (stereo not given in full) | inactive: > 50 µM |

| SMILES | GI50 |
| --- | --- |
| COc1ccccc1/C=C1\Sc2scc(-c3ccc(O)c(O)c3)[n+]2C1=O | inactive: 37.6 µM |
| O=c1ccc2ccc(O)c3c4c(O)ccc5ccc(=O)c(c1c23)c54 | inactive: 2.92 µM |
| C=C(CCC/C(C)=C/C=C/[C@H](C)CCCc1ccoc1)C[C@@H]1OC(=O)[C@H](C)[C@@H]1O | inactive: 3.47 µM |
| COC(=O)C1CC/C(=N/C2c3ccccc3-c3ccccc32)N1 (stereo not given) | inactive: > 100 µM |
| CC(C)OP(=O)(NC(=S)c1ccccc1)OC(C)C | inactive: > 100 µM |
| Cc1nc(C)c(N2CCN(S(=O)(=O)N(Cc3ccccc3)Cc3ccccc3)CC2)c(O)n1 | inactive: > 89.1 µM |
| COc1cc2c(c(O)c1OC)C(=O)C1CCC(=O)N1C2c1cccc2ccccc12 (stereo not given) | inactive: > 100 µM |
| CC(C(=O)NCCNC(=O)CCC(=O)N(C)O)C(=O)NCCNC(=O)CCC(=O)N(C)O | inactive: > 100 µM |
| COC(=O)C1(C(=O)OC)Cc2ccc(OC)cc2C2=C1C(=O)c1ccccc1C2=O | inactive: 19.6 µM |
| COc1ccc(/C(Cl)=C(\C=O)c2ccc([N+](=O)[O-])cc2)cc1 | inactive: 23.3 µM |
| CCCCCCCCCCCCCCCCNc1ccc2c(c1)OCCOCCOCCOCCO2 | inactive: 4.56 µM |
| CCOC(=O)c1cc(C2CCN(CC(C)CC)C2=S)c(C(=O)/C=C(/C)N)[nH]1 (stereo not given) | inactive: > 50 µM |
| O=c1/c(=C/c2ccc3c(c2)OCO3)sc2nnc(Cc3ccccc3)n12 | inactive: > 100 µM |
| O=C(NC1(C(=O)NNc2nnc(-c3ccccc3)c(-c3ccccc3)n2)C(c2ccccc2)C(c2ccccc2)=NN1c1ccccc1)c1ccccc1 (stereo not given) | inactive: > 100 µM |
| O=[N+]([O-])c1ccc(/C=C/c2ccc(/C=C/c3ccc([N+](=O)[O-])cc3[N+](=O)[O-])cc2)c([N+](=O)[O-])c1 | inactive: > 100 µM |
| Cc1ccccc1OC(C)C(=O)NN1C(=O)CC(=O)NC1=S (stereo not given) | inactive: 89.1 µM |
| O=C1C(Cl)C(c2cc3cc(Br)ccc3nc2Cl)N1c1ccc(F)c(Cl)c1 (stereo not given) | inactive: 12.1 µM |
| C#CC1(O)CCC2C3CCc4cc(Oc5nc(F)nc(-c6c7ccccc7c7sc8ccccc8n67)n5)ccc4C3CC[C@@]21C (stereo not given in full) | inactive: > 100 µM |
| C#CCN(Cc1ccc2nc(-c3ccccc3)c(Cl)nc2c1)c1ccc(Cl)c(Cl)c1 | inactive: 86.9 µM |
| CNCCCn1c2ccccc2c2c3c(c(-c4ccsc4)cc21)C(=O)NC3=O | active: 0.986 µM |
| CC(=O)OC1CC(n2cc(F)c(=O)[nH]c2=O)OC1CO (stereo not given) | inactive: 15.2 µM |
| O=C1Oc2ccccc2C(=O)/C1=C/N1C(=O)CNC1=S | inactive: > 100 µM |
| COc1ccc2c(c1)OCC1(O)Cc3ccccc3OC21 (stereo not given) | inactive: > 100 µM |

| SMILES | GI50 |
| --- | --- |
| COc1cccc2c1C(=O)c1c(O)c3c(c(O)c1C2=O)C[C@@](O)(C(=O)CO)CC3OC1CC(O)C(O)C(C)O1 (stereo not given in full) | active: 0.641 µM |
| CCN1/C(=C/C#C/C(C)=C\c2sc3ccccc3[n+]2CC)Sc2ccccc21 | inactive: 5.94 µM |
| COc1ccc(/N=N/C(=O)NC(CC(C)C)C(N)=O)cc1 (stereo not given) | inactive: > 31.6 µM |
| COc1cc(C(=O)OC2CC34CCNC35CC(OC5(OC)C2O)c2cc3c(cc24)OCO3)ccc1O (stereo not given) | inactive: > 100 µM |
| COC(=O)/C(=N\NC(N)=O)C(C(=O)C=C(C)C)C(=O)C(=O)Nc1ccc(Cl)c(Cl)c1 (stereo not given) | inactive: > 100 µM |
| COc1ccc(C2CCc3nc4nc(N)nc(N)c4cc3C2)cc1 (stereo not given) | inactive: 33.7 µM |
| CC1CC(=O)NC2CC1C2(C)C (stereo not given) | inactive: > 100 µM |
| C/C(Nc1ccc(Cl)cc1Cl)=C1/CCOC1=O | inactive: > 100 µM |
| C=CCN1CCC(c2cc(C(=O)OCC)[nH]c2-c2cc(C)no2)C1=O (stereo not given) | inactive: 76.4 µM |
| C[C@H]1CCCCC[C@@H]2CC(=O)CC2C(=O)CCC(=O)O1 (stereo not given in full) | inactive: > 100 µM |
| CC(C)C1CCC(=O)CC1CCCCC1CC(=O)CC1O[Si](C)(C)C(C)(C)C (stereo not given) | inactive: 10.6 µM |
| CCC1(CC)C(=O)N(C(=O)c2ccc(C)cc2)N(C(=O)c2ccc(C)cc2)C1=O | inactive: > 75 µM |
| CCOc1ccc(/N=C/c2ccc3ccccc3n2)cc1 | inactive: > 100 µM |
| O=C1CSC(c2c[nH]c3ccccc23)N1c1ccccc1[N+](=O)[O-] (stereo not given) | inactive: > 100 µM |
| CCOC(=O)/C(=C\c1ccc(F)cc1)C(C)=O | inactive: 20.7 µM |
| COC(=O)Cc1c(C2C(CC(=O)OC)c3ccccc3N2C2OC(CO)C(O)C(O)C2O)[nH]c2ccccc12 (stereo not given) | inactive: > 100 µM |
| CCCc1c(O)c(=O)c2c(OC)cc(OC)c3c4c(OC)cc(OC)c5c(=O)c(O)c(CCC)c(c1c23)c54 | inactive: 2.24 µM |
| CC1(C)[C@@H]2CC[C@@]1(C)C1(S[S+]1[O-])C21Cc2ccccc2C1 (stereo not given in full) | inactive: > 100 µM |
| CCOC(=O)[C@@H](NC(=O)OC(C)(C)C)[C@@H](O)C(=O)OCC | inactive: > 100 µM |
| COC(=O)c1ccc(Cl)cc1NC(=O)C1CCCCC1 | inactive: > 100 µM |
| O=Cc1ccc2ccocc1-2 | inactive: > 100 µM |
| CCN(CC)CCOc1ccc(N2C(=O)c3cc(OC)c(OC)cc3C2=O)cc1 | inactive: > 100 µM |
| O=c1c2cccc3cccc(c4n1CCCN=4)c32 | inactive: > 100 µM |

| SMILES | GI50 |
| --- | --- |
| CS(=O)(=O)OCOS(C)(=O)=O | inactive: > 100 µM |
| COC(=O)[C@H](Cc1ccccc1)NC(=O)[C@H](Cc1ccccc1)NC(=O)CN1C(=O)[C@@H]2C3C=CC(C3)[C@@H]2C1=O | inactive: 17.1 µM and inactive: 17.2 µM |
| O=C1C[C@H](c2ccccc2)O[C@@H](c2ccccc2)C1 | inactive: > 100 µM |
| COc1ccc(/C=C\c2cc(OC)c(OC)c(OC)c2)cc1OC(=O)CCC(=O)O | active: < 0.0001 µM |
| CSC1(C)CC2C(CC1N1CCCCC1)C2(C)C (stereo not given) | inactive: > 100 µM |
| BrC1=CN2C[n+]3cc(Br)c4ccccc4c3N=C2c2ccccc21 | inactive: 26.7 µM |
| CCOP(=O)(OCC)C(F)(F)CC1CCCCC1 | inactive: > 10 µM |
| CC1=Nn2c(nnc2-c2ccccc2Cl)NC(C)(C)C1 | inactive: > 100 µM |
| CCOP(=O)(C/C=C/Cn1nc(Br)c(=O)[nH]c1=O)OCC | inactive: > 100 µM |
| CO[C@@]1(c2ccccc2)O[C@H]2OCCC2[C@H]1c1ccc(Cl)cc1 (stereo not given in full) | inactive: 30.5 µM |
| CC(C)(C)OC(=O)Cc1ccc2c(ccn2Cc2ccccc2)c1 | inactive: > 100 µM |
| COc1ccccc1C1Nn2c(nc3ccccc3c2=O)N1c1ccc(C)cc1 (stereo not given) | inactive: 12.8 µM |
| CC(=O)OC1CCC2OOC1O2 (stereo not given) | inactive: > 100 µM |
| Cc1cc(NS(=O)(=O)c2ccc(NC(=O)c3cccc4c(Nc5ccc(S(=O)(=O)Nc6cc(C)on6)cc5)c5ccc(Cl)cc5nc34)cc2)no1 | inactive: 60.5 µM |
| CCOC(=O)C1Nc2ccccc2[C@H]2OCC[C@@H]12 (stereo not given in full) | inactive: > 100 µM |
| COC(=O)[C@@H]1C[C@H](c2ccc(OC)c(OC)c2)OC1=O.COC(=O)[C@H]1C[C@H](c2ccc(OC)c(OC)c2)OC1=O | inactive: > 100 µM |
| CC[N+](C)(CC)Cc1ccccc1[N+](=O)[O-] | inactive: > 100 µM |
| O=C1C(CO)=C[C@H](O)[C@H]2O[C@@H]12 | inactive: 130 µM |
| C=C1C(=O)O[C@@H]2C(=O)[C@@H](C)CCC/C(C)=C/CC[C@@]3(C)O[C@@H]3C[C@@H]12 | inactive: > 100 µM |
| CC(=O)Nc1nnc(S(C)(=O)=O)s1 | inactive: > 100 µM |
| Nc1nc(F)nc2c1ncn2C1OC(CO)C(O)C1O (stereo not given) | inactive: > 100 µM |
